# About 340 (0.77%) of roughly 44,000 compounds were called active. Not shown: some 5% with an inconclusive outcome. The call rests on the fitted dose curve; in most records, active means well fitted inhibition curve with a large enough effect; inconclusive means small, poorly fitted or top-dose-only effect; inactive means flat fitted curve, though single readings scatter. Some of the results follow.
# Assay: Acumen qHTS Assay for Inhibitors of the mTORC1 Signaling Pathway in MEF (Tsc2-/-, p53-/-) Cells: Sytravon;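 further: plate controls were DMSO for no effect and rapamycin for full effect; nearly all actives have a fitted effect of over 50% in size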
# Details: phospho-rpS6 immunofluorescence/PI, 24 h; series mostly up to 38.3 µM; activity change, negative = inhibition: at the top concentration
# Procedure, shortened: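 Plate MEFs (Tsc2-/-, p53-/-, empty vector) in DMEM/10% FBS; after 24 h add compound, incubate 24 h at 37 degree Celsius; fix in PFA/TX-100, block, stain phospho-rpS6 and 10 uM PI; scan at 488 nm; report % positive cells.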
row,Structure (SMILES),"activity change, negative = inhibition"
1,COc1ccc(OC)c(Nc2sc(C(=O)c3ccccc3)c(N)c2S(=O)(=O)c2ccccc2)c1,inactive: -8.87%
2,Cc1ccccc1NC(=O)Cn1c(=O)n(CCc2ccccc2)c(=O)c2ccccc21,inactive: 2.54%
3,CCc1nn2c(=O)cc(COC(=O)c3ccccc3NC(=O)COc3ccc(C)c(C)c3)nc2s1,inactive: 0%
4,COc1ccc(CNC(=O)C(C)n2nc(C)c3c(C)n(-c4ccccc4)nc3c2=O)c(OC)c1 (configuration not stated),inactive: -3.7%
5,CC(C(=O)Nc1ccc(OC(F)(F)F)cc1)N1Cc2ccccc2C1=O (configuration not stated),inactive: 1.88%
6,Cc1oc(-c2ccccc2F)nc1CN1CCC(C(=O)NCCc2ccccc2)CC1,inactive: 1.16%
7,CCCCn1cc(S(=O)(=O)c2cc(C)ccc2C)c(=O)c2cc(F)c(F)cc21,inactive: -1.58%
8,CCOC(=O)c1cccc(NC(=O)c2oc3c(c2C)-c2nn(CC)cc2CC3)c1,inactive: -15.3%
9,Cc1c(Cl)cccc1-n1ncc(C(=O)NC2CCCCC2)c1C1CCN(C(=O)OC(C)(C)C)CC1,inactive: 5.48%
10,COc1ccc(Br)cc1[C@@H]1Nc2ccc(C(=O)O)cc2[C@@H]2C=CC[C@@H]21,inactive: -3.14%
11,CCOc1ccc(CCNC(=O)CSc2nnnn2-c2ccccc2)cc1OCC,inactive: -2.37%
12,Cc1ccc(CNC(=O)Cc2csc3ccccc23)cc1,inactive: -2.76%
13,C#CCn1c(=O)n(-c2cccc(Cl)c2C)c(=O)c2c3c(sc21)CN(C(C)=O)CC3,inactive: 1.22%
14,CCOc1ccc(CNC(=O)Cn2nc(C)c3c(C)n(-c4ccc(C)cc4)nc3c2=O)cc1,inactive: 1.56%
15,CC(C)C(=O)Nc1nc2c(s1)CC(C(C)(C)C)CC2 (configuration not stated),inactive: 0.924%
16,CC(=O)c1ccc(-n2c(CCC(=O)O)ccc2-c2cccs2)cc1,inactive: 8.73%
17,COc1ccc(-c2cnc(C)o2)cc1S(=O)(=O)Nc1ccc(OC(F)(F)F)cc1,inactive: 0.457%
18,Cc1ccc(C)c(CSc2nnc(C)n3c2cc2sccc23)c1,inactive: -5.65%
19,O=C(Cn1c(=O)nc(-c2ccccc2)c2ccccc21)N1CCN(c2ccc(F)cc2)CC1,inactive: 0%
20,COc1cc(OC)c(NC2=C(c3ccc(C(F)(F)F)cc3)C(=O)c3ccccc32)cc1Cl,inactive: 1.99%
21,O=C(CS(=O)(=O)c1cccc2nsnc12)NCc1ccccc1,inactive: -2.84%
22,COc1cc(NC(=O)C(Cc2ccccc2)NS(=O)(=O)c2cccs2)cc(OC)c1 (configuration not stated),inactive: -4.21%
23,Cc1noc(/C=C/c2ccccc2F)c1S(=O)(=O)N1CCC(C(=O)NCC(C)c2ccccc2)CC1 (configuration not stated),inactive: 2.08%
24,CC(C)Oc1ccccc1NC(=O)CSc1nccn1C,inactive: 6.13%
25,OCCCn1c(-c2ccc(F)cc2)csc1=Nc1ccc(F)cc1,inactive: -4.01%
26,Cc1ccc(-n2c(=O)c3c(c4cc(C)ccc4n3C)n(CC(=O)c3ccc(Cl)cc3)c2=O)cc1,inactive: -6.79%
27,O=C(O)CSc1nc2ccc(NC(=O)COc3ccc(Cl)cc3)cc2s1,inactive: -10.1%

# From PubChem BioAssay AID493208 (National Center for Advancing Translational Sciences (NCATS), 2011)
